Test results reported in the supplement of paper PMC11876631.
± gives the standard deviation of the averaged measurements. Laboratory Escherichia coli strains with one amino-acid change in an essential protein, pooled on minimal glucose agar with carbenicillin or gentamicin at twice the control MIC (plus kanamycin and chloramphenicol for the plasmids), 48 h. Fold change of barcode share against drug-free plates; higher = less susceptible. Active = above 20 in both replicates (the paper's putatively resistant). '<' = one read or none on drug, '>' = one read or none on a drug-free plate. Shares are relative, so most strains fall below 1 when a few take over. Listed are strains with at least 15 reads on both drug-free plates, and hits; most hits rest on fewer reference reads. Replicate rank correlation about 0.5. Edits are read from barcodes.

B1: psd V68A (protein)
chain: MLNSFKLSLQYILPKLWLTRLAGWGASKRAGWLTKLVIDLFVKYYKVDMKEAQKPDTASYRTFNEFFARPLRDEVRPIDTDPNVLVMPADGVISQLGKIEEDKILQAKGHNYSLEALLAGNYLMADLFRNGTFVTTYLSPRDYHRVHMPCNGILREMIYVPGDLFSVNHLTAQNVPNLFARNERVICLFDTEFGPMAQILVGATIVGSIETVWAGTITPPREGIIKRWTWPAGENDGSVALLKGQEMGRFKLGSTVINLFAPGKVNLVEQLESLSVTKIGQPLAVSTETFVTPDAEPAPLPAEEIEAEHDASPLVDDKKDQV
B2: psd L71D (protein)
chain: MLNSFKLSLQYILPKLWLTRLAGWGASKRAGWLTKLVIDLFVKYYKVDMKEAQKPDTASYRTFNEFFVRPDRDEVRPIDTDPNVLVMPADGVISQLGKIEEDKILQAKGHNYSLEALLAGNYLMADLFRNGTFVTTYLSPRDYHRVHMPCNGILREMIYVPGDLFSVNHLTAQNVPNLFARNERVICLFDTEFGPMAQILVGATIVGSIETVWAGTITPPREGIIKRWTWPAGENDGSVALLKGQEMGRFKLGSTVINLFAPGKVNLVEQLESLSVTKIGQPLAVSTETFVTPDAEPAPLPAEEIEAEHDASPLVDDKKDQV
B3: psd V68Q (protein)
chain: MLNSFKLSLQYILPKLWLTRLAGWGASKRAGWLTKLVIDLFVKYYKVDMKEAQKPDTASYRTFNEFFQRPLRDEVRPIDTDPNVLVMPADGVISQLGKIEEDKILQAKGHNYSLEALLAGNYLMADLFRNGTFVTTYLSPRDYHRVHMPCNGILREMIYVPGDLFSVNHLTAQNVPNLFARNERVICLFDTEFGPMAQILVGATIVGSIETVWAGTITPPREGIIKRWTWPAGENDGSVALLKGQEMGRFKLGSTVINLFAPGKVNLVEQLESLSVTKIGQPLAVSTETFVTPDAEPAPLPAEEIEAEHDASPLVDDKKDQV
B4: psd L71A (protein)
chain: MLNSFKLSLQYILPKLWLTRLAGWGASKRAGWLTKLVIDLFVKYYKVDMKEAQKPDTASYRTFNEFFVRPARDEVRPIDTDPNVLVMPADGVISQLGKIEEDKILQAKGHNYSLEALLAGNYLMADLFRNGTFVTTYLSPRDYHRVHMPCNGILREMIYVPGDLFSVNHLTAQNVPNLFARNERVICLFDTEFGPMAQILVGATIVGSIETVWAGTITPPREGIIKRWTWPAGENDGSVALLKGQEMGRFKLGSTVINLFAPGKVNLVEQLESLSVTKIGQPLAVSTETFVTPDAEPAPLPAEEIEAEHDASPLVDDKKDQV
B5: psd V68P (protein)
chain: MLNSFKLSLQYILPKLWLTRLAGWGASKRAGWLTKLVIDLFVKYYKVDMKEAQKPDTASYRTFNEFFPRPLRDEVRPIDTDPNVLVMPADGVISQLGKIEEDKILQAKGHNYSLEALLAGNYLMADLFRNGTFVTTYLSPRDYHRVHMPCNGILREMIYVPGDLFSVNHLTAQNVPNLFARNERVICLFDTEFGPMAQILVGATIVGSIETVWAGTITPPREGIIKRWTWPAGENDGSVALLKGQEMGRFKLGSTVINLFAPGKVNLVEQLESLSVTKIGQPLAVSTETFVTPDAEPAPLPAEEIEAEHDASPLVDDKKDQV
B6: psd L71P (protein)
chain: MLNSFKLSLQYILPKLWLTRLAGWGASKRAGWLTKLVIDLFVKYYKVDMKEAQKPDTASYRTFNEFFVRPPRDEVRPIDTDPNVLVMPADGVISQLGKIEEDKILQAKGHNYSLEALLAGNYLMADLFRNGTFVTTYLSPRDYHRVHMPCNGILREMIYVPGDLFSVNHLTAQNVPNLFARNERVICLFDTEFGPMAQILVGATIVGSIETVWAGTITPPREGIIKRWTWPAGENDGSVALLKGQEMGRFKLGSTVINLFAPGKVNLVEQLESLSVTKIGQPLAVSTETFVTPDAEPAPLPAEEIEAEHDASPLVDDKKDQV
B7: psd L85Q (protein)
chain: MLNSFKLSLQYILPKLWLTRLAGWGASKRAGWLTKLVIDLFVKYYKVDMKEAQKPDTASYRTFNEFFVRPLRDEVRPIDTDPNVQVMPADGVISQLGKIEEDKILQAKGHNYSLEALLAGNYLMADLFRNGTFVTTYLSPRDYHRVHMPCNGILREMIYVPGDLFSVNHLTAQNVPNLFARNERVICLFDTEFGPMAQILVGATIVGSIETVWAGTITPPREGIIKRWTWPAGENDGSVALLKGQEMGRFKLGSTVINLFAPGKVNLVEQLESLSVTKIGQPLAVSTETFVTPDAEPAPLPAEEIEAEHDASPLVDDKKDQV
B8: psd V68D (protein)
chain: MLNSFKLSLQYILPKLWLTRLAGWGASKRAGWLTKLVIDLFVKYYKVDMKEAQKPDTASYRTFNEFFDRPLRDEVRPIDTDPNVLVMPADGVISQLGKIEEDKILQAKGHNYSLEALLAGNYLMADLFRNGTFVTTYLSPRDYHRVHMPCNGILREMIYVPGDLFSVNHLTAQNVPNLFARNERVICLFDTEFGPMAQILVGATIVGSIETVWAGTITPPREGIIKRWTWPAGENDGSVALLKGQEMGRFKLGSTVINLFAPGKVNLVEQLESLSVTKIGQPLAVSTETFVTPDAEPAPLPAEEIEAEHDASPLVDDKKDQV
B9: psd L85P (protein)
chain: MLNSFKLSLQYILPKLWLTRLAGWGASKRAGWLTKLVIDLFVKYYKVDMKEAQKPDTASYRTFNEFFVRPLRDEVRPIDTDPNVPVMPADGVISQLGKIEEDKILQAKGHNYSLEALLAGNYLMADLFRNGTFVTTYLSPRDYHRVHMPCNGILREMIYVPGDLFSVNHLTAQNVPNLFARNERVICLFDTEFGPMAQILVGATIVGSIETVWAGTITPPREGIIKRWTWPAGENDGSVALLKGQEMGRFKLGSTVINLFAPGKVNLVEQLESLSVTKIGQPLAVSTETFVTPDAEPAPLPAEEIEAEHDASPLVDDKKDQV
B10: psd L71Q (protein)
chain: MLNSFKLSLQYILPKLWLTRLAGWGASKRAGWLTKLVIDLFVKYYKVDMKEAQKPDTASYRTFNEFFVRPQRDEVRPIDTDPNVLVMPADGVISQLGKIEEDKILQAKGHNYSLEALLAGNYLMADLFRNGTFVTTYLSPRDYHRVHMPCNGILREMIYVPGDLFSVNHLTAQNVPNLFARNERVICLFDTEFGPMAQILVGATIVGSIETVWAGTITPPREGIIKRWTWPAGENDGSVALLKGQEMGRFKLGSTVINLFAPGKVNLVEQLESLSVTKIGQPLAVSTETFVTPDAEPAPLPAEEIEAEHDASPLVDDKKDQV
B11: psd V68W (protein)
chain: MLNSFKLSLQYILPKLWLTRLAGWGASKRAGWLTKLVIDLFVKYYKVDMKEAQKPDTASYRTFNEFFWRPLRDEVRPIDTDPNVLVMPADGVISQLGKIEEDKILQAKGHNYSLEALLAGNYLMADLFRNGTFVTTYLSPRDYHRVHMPCNGILREMIYVPGDLFSVNHLTAQNVPNLFARNERVICLFDTEFGPMAQILVGATIVGSIETVWAGTITPPREGIIKRWTWPAGENDGSVALLKGQEMGRFKLGSTVINLFAPGKVNLVEQLESLSVTKIGQPLAVSTETFVTPDAEPAPLPAEEIEAEHDASPLVDDKKDQV
B12: psd L85A (protein)
chain: MLNSFKLSLQYILPKLWLTRLAGWGASKRAGWLTKLVIDLFVKYYKVDMKEAQKPDTASYRTFNEFFVRPLRDEVRPIDTDPNVAVMPADGVISQLGKIEEDKILQAKGHNYSLEALLAGNYLMADLFRNGTFVTTYLSPRDYHRVHMPCNGILREMIYVPGDLFSVNHLTAQNVPNLFARNERVICLFDTEFGPMAQILVGATIVGSIETVWAGTITPPREGIIKRWTWPAGENDGSVALLKGQEMGRFKLGSTVINLFAPGKVNLVEQLESLSVTKIGQPLAVSTETFVTPDAEPAPLPAEEIEAEHDASPLVDDKKDQV
B13: psd L71W (protein)
chain: MLNSFKLSLQYILPKLWLTRLAGWGASKRAGWLTKLVIDLFVKYYKVDMKEAQKPDTASYRTFNEFFVRPWRDEVRPIDTDPNVLVMPADGVISQLGKIEEDKILQAKGHNYSLEALLAGNYLMADLFRNGTFVTTYLSPRDYHRVHMPCNGILREMIYVPGDLFSVNHLTAQNVPNLFARNERVICLFDTEFGPMAQILVGATIVGSIETVWAGTITPPREGIIKRWTWPAGENDGSVALLKGQEMGRFKLGSTVINLFAPGKVNLVEQLESLSVTKIGQPLAVSTETFVTPDAEPAPLPAEEIEAEHDASPLVDDKKDQV
B14: psd L85W (protein)
chain: MLNSFKLSLQYILPKLWLTRLAGWGASKRAGWLTKLVIDLFVKYYKVDMKEAQKPDTASYRTFNEFFVRPLRDEVRPIDTDPNVWVMPADGVISQLGKIEEDKILQAKGHNYSLEALLAGNYLMADLFRNGTFVTTYLSPRDYHRVHMPCNGILREMIYVPGDLFSVNHLTAQNVPNLFARNERVICLFDTEFGPMAQILVGATIVGSIETVWAGTITPPREGIIKRWTWPAGENDGSVALLKGQEMGRFKLGSTVINLFAPGKVNLVEQLESLSVTKIGQPLAVSTETFVTPDAEPAPLPAEEIEAEHDASPLVDDKKDQV

biological target: Escherichia coli (laboratory strain); assay: barcode share on antibiotic plates over drug-free plates; higher = less susceptible; conditions: antibiotic: carbenicillin; 2× MIC (3.1 µg/mL)
Method: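 A pool of E. coli strains, each edited to carry one amino-acid change in an essential protein, was grown for 48 h on minimal glucose agar with or without antibiotic; strain barcodes were sequenced; mean of two replicates.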

Row | Protein | fold change of barcode share
1 | B1 | 0.307 ± 0.13
2 | B2 | 0.326 ± 0.052
3 | B3 | 0.159 ± 0.041
4 | B4 | 0.335 ± 0.065
5 | B5 | 0.504 ± 0.034
6 | B6 | 0.297 ± 0.041
7 | B7 | 0.364 ± 0.025
8 | B8 | 0.214 ± 0.14
9 | B9 | 0.371 ± 0.08
10 | B10 | 0.278 ± 0.12
11 | B11 | 0.272 ± 0.086
12 | B12 | 0.387 ± 0.07
13 | B13 | 0.321 ± 0.046
14 | B14 | 0.252 ± 0.089

same assay, conditions: antibiotic: gentamicin; 2× MIC (MIC 0.45 µg/mL)

Row | Protein | fold change of barcode share
15 | B1 | < 0.00864
16 | B2 | 0.0049 ± 0.00072
17 | B3 | < 0.0089
18 | B4 | 0.00348 ± 0.0012
19 | B5 | < 0.00621
20 | B6 | < 0.00391
21 | B7 | 0.0096 ± 0.0083
22 | B8 | < 0.0132
23 | B9 | < 0.00337
24 | B10 | 0.00721 ± 0.00097
25 | B11 | 0.0267 ± 0.013
26 | B12 | 0.0028 ± 0.0011
27 | B13 | < 0.00412
28 | B14 | 0.00598 ± 0.0035
